± gives the standard deviation of the averaged measurements. This is one part of the list.
System: PfAP2-EXP AP2 domain (GST-tagged)
Experiment: gcPBM binding intensity (ln(normalized median fluorescence intensity)); higher = stronger DNA binding
Outline: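 Binding intensity is the highest Masliner-normalised natural-log median intensity over replicate spots in either probe orientation. To obtain it, GST-tagged P. falciparum DNA-binding domains made in E. coli were incubated for 1 h on an Agilent 4 × 180k array of primer-extended double-stranded 36-bp intergenic genomic probes plus negative controls. Detection used Alexa488 anti-GST antibody with scanning at 488 nm.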

Row | Sequence | gcPBM binding intensity (ln)
1 | AATAATGAATTGAAATGTACATATTTTTATTAATAC [XGTACX_site8899] | 8.42 ± 0.2
2 | TTTTTATATTTTACATGTACATAAATATATTATATA [XGTACX_site958] | 8.63 ± 0.11
3 | ATACGAAGAAATGTTCATTTATTTCGAACATTTAAT [CACACA_negctrl_site1481] | 8.29 ± 0.33
4 | AATATAATATAATATAGTACGTAAAAATATTATACA [XGTACX_site2170] | 8.71 ± 0.35
5 | TTTTTCATAAAACACACACACAAAAATAATGTGGAA [CACACA_site3687] | 8.7 ± 0.54
6 | TTATTATTTGGTTATAGTACATAATATAATATATAT [XGTACX_site6911] | 8.56 ± 0.12
7 | CTATATTTCGTTGGACGTACAAATGTGATAATTAGG [XGTACX_site3232] | 8.71 ± 0.35
8 | TATATATATATGTATGCATGTTGTTTTTTATTTAAT [TGCATGCA_site343] | 9.95 ± 0.18
9 | AGAATTCAACAATGTTGTACATACACACACACAAAA [XGTACX_site5035] | 8.84 ± 0.4
10 | GAATTATAAGAATAAACACACAAGCTTAAAAAAAAA [CACACA_site1204] | 8.65 ± 0.45
11 | TTTGTTTGGTTTTGGTGTACTTTTTTTTTTTTTTCT [XGTACX_site2050] | 8.77 ± 0.61
12 | TTTCTTTTTTCACGTGCATGCCATTTAAGTATTAAT [TGCATGCA_site651] | 9.65 ± 0.31
13 | ACTAAACTTATATGTACACACATATAACATTAATTT [CACACA_site2258] | 8.55 ± 0.24
14 | ACATATGTATAATATGCACACGTCATTTTCCCCTTA [CACACA_site5194] | 8.89 ± 0.36
15 | AAATTATATATGATGTGTACATAAATATATACACAT [XGTACX_site8761] | 8.36 ± 0.3
16 | ATGTATTTATTTTAACGTACAAGATATTATTATTAT [XGTACX_site4609] | 8.45 ± 0.3
17 | TATATTTAGAGAGAGACACACAAAGGGACTTACACA [CACACA_site2545] | 8.82 ± 0.47
18 | TTATTATTCAAGAGGAGTACATTATGTGTATAATAT [XGTACX_site4995] | 8.59 ± 0.071
19 | AAATTATAATATAATACACACATAAAAAAAAAAAAA [CACACA_site7] | 8.44 ± 0.53
20 | ATATGGCATATTTGTATTATACATACATATGTATCT [TGCATGCA_negctrl_site562] | 8.74 ± 0.28
21 | TTAACTTTTTTATATGCACACATAAACAAGGATATA [CACACA_site8932] | 8.64 ± 0.26
22 | AATACAAAAAAAGGTACACACATAATATATTTATTA [CACACA_site2628] | 8.7 ± 0.34
23 | AAAAAAAAAAAGAACACACACAGTGCACATTCGGTG [CACACA_site788] | 8.695 ± 0.035

Row | Sequence | gcPBM binding intensity (ln)
24 | TGTTATTCTACATATACACACAAATAACAATTTAAA [CACACA_site1824] | 8.48 ± 0.45
25 | CTAATTGTGTATACCTGTACATATATATATATATAT [XGTACX_site416] | 10.2 ± 0.42
26 | TTTCCCTCAAATAAAGTGCATTATGATTTTAATTTA | 8.56 ± 0.057
27 | ATAATTAATGATGTATGTACGGAATTTATATATTTG [XGTACX_site5685] | 8.4 ± 0.33
28 | GTATACATATTTATAATAATAAATGTCTTATATTTT [CACACA_negctrl_site688] | 8.21 ± 0.35
29 | ATAGTAATAGAATGATTGCACTTAAATTTTCCCTCT | 8.34 ± 0.3
30 | TTAAATAATTCTTTTAGTACACACGAATAAGCAGAT [XGTACX_site623] | 8.84 ± 0.32
31 | TAATATATTAATATATGTACGTATTTTTATTAATAT [XGTACX_site5346] | 8.56 ± 0.35
32 | TATCTTATATATAAGTGTACGCAGATTCTTACGATA [XGTACX_site6058] | 8.59 ± 0.24
33 | ATATATATATATATATGTACATATGTCAACTGTCTA [XGTACX_site8636] | 10.3
34 | CATACATACAAACACACACACATATATATACATACA [CACACA_site852] | 8.77 ± 0.36
35 | ATATATCAAATAGACAAACACACAAAGGAAGAGTGA [CACACA_site3922] | 8.99 ± 0.46
36 | TATGTATTAATGAGAACATGCAAAATAATAAACAAT [TGCATGCA_site362] | 9.26 ± 0.26
37 | CATATACACGAACACACACACACACGCACAAAAAAA [CACACA_site6376] | 8.72 ± 0.44
38 | CACAGACACGGACACACACACACACCCAGACACATA [CACACA_site4357] | 8.69 ± 0.3
39 | AATAATATATGGACATGTACATAATATATATTTTTT [XGTACX_site312] | 8.45 ± 0.34
40 | TGTTTTATTTATTAAGCACACGCGATTTAAAAAATA [CACACA_site981] | 8.46 ± 0.22
41 | TTCATATAATTCATCTGTACATATTGATAGTATGCA [XGTACX_site6386] | 8.45 ± 0.35
42 | TCAAATGTGTAATCTTGTACACATTAAAAGAAAAAA [XGTACX_site8822] | 8.44 ± 0.28
43 | TTTGTTCTTTTTGAAGTGCACTGAAATATAACAAAA | 9.12 ± 0.4
44 | AAAAAAACACACACATATATATATATATATATATAT [GTGCAC_negctrl_site498] | 10.2 ± 0.41
45 | AAGAAAAAGAATAACCTTATTTCTATATACTAATTT [TGCATGCA_negctrl_site477] | 7.96 ± 0.48
